This is one part of the list.
biological target: T1, MBP-FoxP1dN (Mus musculus, UniProt P58462 326-579); assay: PD-seq (MBP pull-down with sequencing); 20 mM Tris-HCl pH 7.5, 100 mM NaCl, 1.5 mM MgCl2, 0.4 uM protein, 0.1 uM dsDNA library, 30 min, room temperature, amylose pull-down; high values mean tight binding; conditions: protein: recombinant; tags: His6-MBP; chain copies: 2; dsDNA, one strand shown
T1 sequence: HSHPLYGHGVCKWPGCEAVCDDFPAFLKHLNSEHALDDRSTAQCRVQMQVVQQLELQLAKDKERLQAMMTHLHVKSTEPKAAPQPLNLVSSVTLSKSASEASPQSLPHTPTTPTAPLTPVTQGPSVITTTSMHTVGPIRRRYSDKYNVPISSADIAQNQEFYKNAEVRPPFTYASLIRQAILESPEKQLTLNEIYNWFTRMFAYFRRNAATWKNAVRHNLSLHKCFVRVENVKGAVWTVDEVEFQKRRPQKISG
Method in brief: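 In Tris pH 7.5 buffer with NaCl and MgCl2, 0.4 µM His6-MBP-tagged mouse FoxP3 or FoxP1 fragment lacking the N-terminus, from E. coli, met 0.1 µM Klenow-filled double-stranded degenerate DNA library for 30 min at room temperature. Three washes on amylose resin followed capture of the complexes, then proteinase K release of DNA, PCR barcoding and Illumina sequencing. Binding is taken as pooled-replicate reads-per-million enrichment of pull-down relative to input.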

| Sequence | binding signal |
| --- | --- |
| GATGATTGTTCTCCCAGCTGATGAATTTACCCTTTCGAGTAAACAAATTTTCCTAATCTTTCTGTTCAAGCGCCATCTAC | 1.19 RPM ratio (pull-down/input) |
| GATGATTGTTCTCCCAGCTGATGAATTTATTCAATCGAGTAAACAAATTTTCCTAATCTTTCTGTTCAAGCGCCATCTAC | 1.26 RPM ratio (pull-down/input) |
| GATGATTGTTCTCCCAGCTGATGAATTGCCGTTATCGAGTAAACAAATTTTCCTAATCTTTCTGTTCAAGCGCCATCTAC | 1.07 RPM ratio (pull-down/input) |
| GATGATTGTTCTCCCAGCTGATGAATTGGGGGGTTCGAGTAAACAAATTTTCCTAATCTTTCTGTTCAAGCGCCATCTAC | 0.815 RPM ratio (pull-down/input) |
| GATGATTGTTCTCCCAGCTGATGAATTCCGTCCGTCGAGTAAACAAATTTTCCTAATCTTTCTGTTCAAGCGCCATCTAC | 0.773 RPM ratio (pull-down/input) |
| GATGATTGTTCTCCCAGCTGATGAATTCACATGATCGAGTAAACAAATTTTCCTAATCTTTCTGTTCAAGCGCCATCTAC | 0.897 RPM ratio (pull-down/input) |
| GATGATTGTTCTCCCAGCTGATGAATTGGGGAGTTCGAGTAAACAAATTTTCCTAATCTTTCTGTTCAAGCGCCATCTAC | 0.839 RPM ratio (pull-down/input) |
| GATGATTGTTCTCCCAGCTGATGAATTCATCTGTTCGAGTAAACAAATTTTCCTAATCTTTCTGTTCAAGCGCCATCTAC | 0.868 RPM ratio (pull-down/input) |
| GATGATTGTTCTCCCAGCTGATGAATTCGGGCGTTCGAGTAAACAAATTTTCCTAATCTTTCTGTTCAAGCGCCATCTAC | 0.839 RPM ratio (pull-down/input) |
| GATGATTGTTCTCCCAGCTGATGAATTTTTTAACTCGAGTAAACAAATTTTCCTAATCTTTCTGTTCAAGCGCCATCTAC | 1.07 RPM ratio (pull-down/input) |
| GATGATTGTTCTCCCAGCTGATGAATTATCATCGTCGAGTAAACAAATTTTCCTAATCTTTCTGTTCAAGCGCCATCTAC | 1 RPM ratio (pull-down/input) |
| GATGATTGTTCTCCCAGCTGATGAATTTTATTTTTCGAGTAAACAAATTTTCCTAATCTTTCTGTTCAAGCGCCATCTAC | 1.96 RPM ratio (pull-down/input) |
| GATGATTGTTCTCCCAGCTGATGAATTAAAATCGTCGAGTAAACAAATTTTCCTAATCTTTCTGTTCAAGCGCCATCTAC | 0.916 RPM ratio (pull-down/input) |
| GATGATTGTTCTCCCAGCTGATGAATTCGGCCAATCGAGTAAACAAATTTTCCTAATCTTTCTGTTCAAGCGCCATCTAC | 0.877 RPM ratio (pull-down/input) |
| GATGATTGTTCTCCCAGCTGATGAATTCAAGCACTCGAGTAAACAAATTTTCCTAATCTTTCTGTTCAAGCGCCATCTAC | 0.915 RPM ratio (pull-down/input) |
| GATGATTGTTCTCCCAGCTGATGAATTTTATAGGTCGAGTAAACAAATTTTCCTAATCTTTCTGTTCAAGCGCCATCTAC | 0.796 RPM ratio (pull-down/input) |

| Sequence | binding signal |
| --- | --- |
| GATGATTGTTCTCCCAGCTGATGAATTACGCAAATCGAGTAAACAAATTTTCCTAATCTTTCTGTTCAAGCGCCATCTAC | 1.28 RPM ratio (pull-down/input) |
| GATGATTGTTCTCCCAGCTGATGAATTGCTTAGGTCGAGTAAACAAATTTTCCTAATCTTTCTGTTCAAGCGCCATCTAC | 1.02 RPM ratio (pull-down/input) |
| GATGATTGTTCTCCCAGCTGATGAATTATCAAATTCGAGTAAACAAATTTTCCTAATCTTTCTGTTCAAGCGCCATCTAC | 1.16 RPM ratio (pull-down/input) |
| GATGATTGTTCTCCCAGCTGATGAATTTATCTCCTCGAGTAAACAAATTTTCCTAATCTTTCTGTTCAAGCGCCATCTAC | 1.08 RPM ratio (pull-down/input) |
| GATGATTGTTCTCCCAGCTGATGAATTTTGTTAATCGAGTAAACAAATTTTCCTAATCTTTCTGTTCAAGCGCCATCTAC | 1.21 RPM ratio (pull-down/input) |
| GATGATTGTTCTCCCAGCTGATGAATTAAGTCGGTCGAGTAAACAAATTTTCCTAATCTTTCTGTTCAAGCGCCATCTAC | 0.85 RPM ratio (pull-down/input) |
| GATGATTGTTCTCCCAGCTGATGAATTGGTGGTCTCGAGTAAACAAATTTTCCTAATCTTTCTGTTCAAGCGCCATCTAC | 0.826 RPM ratio (pull-down/input) |
| GATGATTGTTCTCCCAGCTGATGAATTGGGAAGCTCGAGTAAACAAATTTTCCTAATCTTTCTGTTCAAGCGCCATCTAC | 0.761 RPM ratio (pull-down/input) |
| GATGATTGTTCTCCCAGCTGATGAATTTATAGTCTCGAGTAAACAAATTTTCCTAATCTTTCTGTTCAAGCGCCATCTAC | 0.973 RPM ratio (pull-down/input) |
| GATGATTGTTCTCCCAGCTGATGAATTTTTCCGCTCGAGTAAACAAATTTTCCTAATCTTTCTGTTCAAGCGCCATCTAC | 0.852 RPM ratio (pull-down/input) |
| GATGATTGTTCTCCCAGCTGATGAATTTGAAGCATCGAGTAAACAAATTTTCCTAATCTTTCTGTTCAAGCGCCATCTAC | 1.09 RPM ratio (pull-down/input) |
| GATGATTGTTCTCCCAGCTGATGAATTACGTTACTCGAGTAAACAAATTTTCCTAATCTTTCTGTTCAAGCGCCATCTAC | 1.1 RPM ratio (pull-down/input) |
| GATGATTGTTCTCCCAGCTGATGAATTTTCACTATCGAGTAAACAAATTTTCCTAATCTTTCTGTTCAAGCGCCATCTAC | 0.987 RPM ratio (pull-down/input) |
| GATGATTGTTCTCCCAGCTGATGAATTTGGCATTTCGAGTAAACAAATTTTCCTAATCTTTCTGTTCAAGCGCCATCTAC | 1.09 RPM ratio (pull-down/input) |
| GATGATTGTTCTCCCAGCTGATGAATTCATCCGGTCGAGTAAACAAATTTTCCTAATCTTTCTGTTCAAGCGCCATCTAC | 0.818 RPM ratio (pull-down/input) |

Source: publication PMC12820563, “FoxP3 forms a head-to-head dimer in vivo and stabilizes its multimerization on adjacent microsatellites”
